{
  "source": "PubChem BioAssay AID504466",
  "about": "(National Center for Advancing Translational Sciences (NCATS), 2011)",
  "note": "Hit rate of the full screen: of about 330,000 compounds, about 4,200 (1.3%) were called active. The inconclusive results got no clear call from the source; some entries with a clear call stand among them for comparison. The call rests on the fitted dose curve; in most records, active means well fitted activation curve with a large enough effect; inconclusive means small, poorly fitted or top-dose-only effect; inactive means no such curve, though single readings can be large or run the other way. A potency beside an inconclusive call is a rough fit, not a confirmed value. Potency means the concentration at half of the fitted maximal effect; tags describe the fitted curve by direction and shape.",
  "data": [
    {"assay": "qHTS screen for small molecules that induce genotoxicity in human embryonic kidney (HEK293T) cells expressing luciferase-tagged ELG1; further: nearly all actives have a fitted effect of over 60% in size", "conditions": "HEK293T ELG1-luciferase reporter, luminescence, 16 h; series mostly up to 46 µM", "procedure,_shortened": "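Step 1: seed 2,000 HEK293T ELG1-luciferase cells per well. Step 2: add compound or DMSO, incubate 16 hr at 37 °C. Step 3: ONE-Glo, 30 min at room temperature, read luminescence.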", "values": [
      {"smiles": "c1ccc2c(c1)oc1c(Nc3ccc(CN4CCOCC4)cc3)ncnc12", "Potency": "active: 2.06 µM"},
      {"smiles": "CC1(C)Cc2[nH]c3ccccc3c2C(C)(C)N1", "Potency": "inactive"},
      {"smiles": "COc1ccc(C(=O)N/N=C/c2ccc(OC(=O)c3ccccc3)cc2)cc1", "Potency": "inconclusive: 29.1 µM [activator, partial curve, poor fit]"},
      {"smiles": "COc1ccc(NC(=O)Cn2nnc(C(=O)NCc3cccs3)c2N)cc1", "Potency": "inconclusive: 32.6 µM [activator, partial curve, poor fit]"},
      {"smiles": "O=c1c(/C=C(\\O)c2ccc(F)cc2)nc2ccccc2n1-c1ccccc1", "Potency": "inconclusive: 8.2 µM [activator, partial curve]"},
      {"smiles": "O=C(NC1=NCCS1)c1ccc(C(F)(F)F)cc1", "Potency": "inconclusive: 16.4 µM [activator, partial curve]"},
      {"smiles": "O=C(Nc1ccc(-c2csnn2)cc1)C1CC1", "Potency": "inactive"},
      {"smiles": "O=C(NN1CCCCC1)c1cccc(COc2ccc(Cl)cc2)c1", "Potency": "inconclusive: 16.4 µM [activator, partial curve, poor fit]"},
      {"smiles": "Clc1ccc(-c2nc(Cc3ccccc3Cl)no2)cc1", "Potency": "inactive"},
      {"smiles": "O=C(O)c1ccc(CSc2nc3ccc(NC(=O)c4ccccc4C(=O)O)cc3s2)cc1", "Potency": "inactive"},
      {"smiles": "Cc1nc(N)sc1-c1csc(Nc2cccc(O)c2)n1", "Potency": "inconclusive: 16.4 µM [activator, partial curve]"},
      {"smiles": "CCOc1ccc(/C=N/Nc2ccccn2)cc1", "Potency": "active: 2.31 µM"},
      {"smiles": "Cc1c(C)c2ccc(OCC(=O)Nc3ccccn3)cc2oc1=O", "Potency": "active: 0.461 µM"},
      {"smiles": "Cc1cc(NC(=O)Cn2cnc3sc(C)c(C)c3c2=O)no1", "Potency": "inactive"},
      {"smiles": "Cc1ccc(-n2nnnc2SCC(=O)Nc2ccccc2-c2ccccc2)cc1C", "Potency": "inactive"},
      {"smiles": "Cc1cccc(COc2ccc(/C=N/NC(=O)c3nnn(-c4nonc4N)c3COc3ccc(F)cc3)cc2)c1", "Potency": "inconclusive: 29.1 µM [activator, partial curve, poor fit]"},
      {"smiles": "Cc1ccc(O)c(-c2cc(-c3ccccc3F)[nH]n2)c1", "Potency": "active: 11.2 µM"},
      {"smiles": "COCC(=O)NC1(c2nnnn2CCOC(=O)Nc2ccc(Cl)cc2)CCCCC1", "Potency": "inconclusive: 6.51 µM [activator, single point]"},
      {"smiles": "COc1ccc(C2=NN(C(=O)CSc3nc(=O)n4cccc(C)c4n3)C(c3ccc(C)cc3)C2)cc1", "note": "(stereo not drawn)", "Potency": "inconclusive: 4.61 µM [activator, full curve, poor fit]"},
      {"smiles": "CCN1C(=O)C2(C(C#N)=C(N)Oc3n[nH]c(-c4ccc(Cl)cc4)c32)c2ccccc21", "note": "(stereo not drawn)", "Potency": "inactive"},
      {"smiles": "O=C(CCn1c(=O)oc2cc(Cl)ccc21)Nc1ccc(N2CCOCC2)cc1", "Potency": "inactive"},
      {"smiles": "CCN1CCN(C(=O)c2ccc(CN(c3ccccc3)S(=O)(=O)c3ccccc3)cc2)CC1", "Potency": "inactive"},
      {"smiles": "COc1cc2c(cc1NC(=S)NC(=O)/C=C/c1ccco1)oc1ccccc12", "Potency": "inconclusive: 23.1 µM [activator, partial curve, poor fit]"},
      {"smiles": "CCCc1cc(C(=O)Nc2ccc(F)cc2F)no1", "Potency": "active: 11.6 µM"},
      {"smiles": "COC(=O)Cc1csc(NCc2ccccc2)n1", "Potency": "inconclusive: 23.1 µM [activator, partial curve, poor fit]"},
      {"smiles": "O=C(O)c1cc(/C=C/c2ccc(N3CCOCC3)c([N+](=O)[O-])c2)nc2ccccc12", "Potency": "inconclusive: 18.3 µM [activator, single point]"},
      {"smiles": "O=C(Nc1cccc(S(=O)(=O)N2CCCCC2)c1)c1ccco1", "Potency": "inactive"},
      {"smiles": "c1ccc(CNc2nc3ccccc3[nH]2)cc1", "Potency": "inconclusive: 13 µM [activator, partial curve, poor fit]"},
      {"smiles": "O=C(CSc1cn(Cc2ccccc2)c2ccccc12)Nc1nccs1", "Potency": "active: 4.61 µM"},
      {"smiles": "CCCCNC(=S)Nc1ccc(C(F)(F)F)cc1", "Potency": "inactive"},
      {"smiles": "Cc1ccc(NC(=O)COc2cccc(C)c2C)cc1S(=O)(=O)N1CCCCCC1", "Potency": "inconclusive: 20.6 µM [activator, single point]"},
      {"smiles": "O=C(CN1CCOCC1)N/N=C/c1cc2ccccc2nc1Cl", "Potency": "inactive"},
      {"smiles": "Cc1ccc(S(=O)(=O)CCC(=O)N(CCN2CCOCC2)c2nc3ccccc3s2)cc1", "Potency": "inconclusive: 20.6 µM [activator, partial curve, poor fit]"},
      {"smiles": "Oc1ccc(Br)cc1C=Nc1cccn2cc(-c3ccccc3)nc12", "Potency": "inconclusive: 6.51 µM [activator, single point]"},
      {"smiles": "O=C(NCCN1CCOCC1)c1cc(-c2cccc(O)c2)on1", "Potency": "inconclusive: 16.4 µM [activator, single point]"},
      {"smiles": "CC(=O)c1sc(-c2ccc(Cl)cc2)nc1C", "Potency": "inconclusive: 14.6 µM [activator, partial curve, poor fit]"},
      {"smiles": "Cc1ccnc(NC(=O)COc2ccc(Cl)cc2)n1", "Potency": "inconclusive: 16.4 µM [activator, partial curve, poor fit]"},
      {"smiles": "CC(=O)c1ccc(NC(=O)CCc2nnc3ccc(NCc4ccco4)nn23)cc1", "Potency": "inconclusive: 20.6 µM [activator, partial curve, poor fit]"},
      {"smiles": "c1ccn2c(SCc3ccc4c(c3)OCCO4)nnc2c1", "Potency": "active: 20.6 µM"},
      {"smiles": "O=C(N/N=C/c1ccc2c(c1)OCO2)c1ccc2ccccc2n1", "Potency": "inconclusive: 32.6 µM [activator, partial curve, poor fit]"},
      {"smiles": "COc1ccc2oc(C(=O)c3ccccc3)c(N)c2c1", "Potency": "inconclusive: 5.17 µM [activator, partial curve]"},
      {"smiles": "Cc1cc(C(=O)N/N=C/c2ccc3c(c2)OCO3)c(C)o1", "Potency": "inconclusive: 14.6 µM [activator, partial curve, poor fit]"},
      {"smiles": "[O-]/[N+](=C\\C=C\\c1ccccc1)c1ccccc1", "Potency": "inconclusive: 8.2 µM [activator, partial curve]"},
      {"smiles": "COc1ccc(/C=C2\\SC(=S)N(CCC(=O)Nc3ccc(C(=O)O)cc3)C2=O)cc1", "Potency": "inconclusive: 20.6 µM [activator, single point]"},
      {"smiles": "COC(=O)C1=CN(Cc2ccc(OC)c(OC)c2)C=C(C(=O)OC)C1c1ccc(F)cc1", "Potency": "inactive"},
      {"smiles": "CN(C)S(=O)(=O)c1ccc(NC(=O)COc2cccc3c2OC(C)(C)C3)cc1", "Potency": "inactive"},
      {"smiles": "COc1cccc(C(=O)c2c(-c3ccccc3)ncc3cc(OC)c(OC)cc23)c1", "Potency": "inactive"},
      {"smiles": "CN(C)c1cccc(C(=O)Nc2cccc(S(=O)(=O)NC3=NCCC3)c2)c1", "Potency": "inconclusive: 7.3 µM [activator, single point]"},
      {"smiles": "Cc1nc(NC(=O)c2cc3ccccc3o2)sc1C", "Potency": "active: 0.651 µM"},
      {"smiles": "COc1ccc(C(=O)N[C@H](C(=O)Nc2ccc(OC)nc2)C(C)C)cc1", "Potency": "inconclusive: 18.4 µM [activator, single point]"},
      {"smiles": "CCc1cccc(C)c1NC(=S)NCC(c1cccnc1)N1CCOCC1", "note": "(stereo not drawn)", "Potency": "inactive"},
      {"smiles": "COc1ccc2oc(-c3ccco3)cc(=O)c2c1", "Potency": "inconclusive: 8.2 µM [activator, partial curve]"},
      {"smiles": "CN1CCCN(C(=O)c2cccc3ccccc23)CC1", "Potency": "inactive"},
      {"smiles": "COc1ccc(-c2ccc(SCC(=O)N3CCOCC3)nn2)cc1OC", "Potency": "inconclusive: 29.1 µM [activator, single point]"},
      {"smiles": "O=C(NCCCN1CCOCC1)C(=O)NCc1ccccc1Cl", "Potency": "inactive"},
      {"smiles": "Cc1nn(-c2ccccc2)c(Cl)c1/C=C/C(=O)c1ccc(O)cc1", "Potency": "inconclusive: 25.9 µM [activator, partial curve, poor fit]"},
      {"smiles": "COc1ccc(-c2ccc(-c3noc(-c4cccs4)n3)c(OC)n2)cc1", "Potency": "inconclusive: 20.6 µM [activator, partial curve, poor fit]"},
      {"smiles": "CN(C)c1ccc(/C=C(\\C#N)C(=O)OCC(=O)N(C)C2CCS(=O)(=O)C2)cc1", "note": "(stereo not drawn)", "Potency": "inconclusive: 29.1 µM [activator, partial curve, poor fit]"},
      {"smiles": "CCCNC(=O)c1ccc(-c2nn(C)c(=O)c3ccccc23)cc1", "Potency": "inconclusive: 18.3 µM [activator, partial curve, poor fit]"},
      {"smiles": "O=C(c1ccc2c(c1)OCO2)N1CCc2ccccc2C1", "Potency": "inconclusive: 5.8 µM [activator, partial curve, poor fit]"},
      {"smiles": "O=C1Nc2ccccc2/C1=N/c1sc2c(c1C(=O)NCCc1ccccc1)CCCC2", "Potency": "inconclusive: 20.6 µM [activator, partial curve, poor fit]"},
      {"smiles": "Cc1nc(-c2cccc3ccccc23)ccc1C(=O)O", "Potency": "inactive"},
      {"smiles": "CCOC(=O)N/N=C/c1c(C)nn(-c2ccccc2Cl)c1Cl", "Potency": "inconclusive: 23.1 µM [activator, partial curve]"},
      {"smiles": "CCOC(=O)Cn1nc(-c2ccc(C)cc2)ccc1=O", "Potency": "inconclusive: 18.4 µM [activator, single point]"},
      {"smiles": "Cc1cccc(C(=O)Nc2cccc3c2CCCC3)c1", "Potency": "inactive"},
      {"smiles": "CCN(CC)S(=O)(=O)c1cc(C(=O)Nc2ccc(Cl)cn2)ccc1C", "Potency": "active: 1.84 µM"},
      {"smiles": "Cc1c(/C=N\\NC(=O)c2ccc([N+](=O)[O-])cc2)cnn1C", "Potency": "inactive"},
      {"smiles": "O=C(c1ccco1)N1CCN(c2ncnc3c2oc2ccccc23)CC1", "Potency": "inconclusive: 18.4 µM [activator, partial curve]"},
      {"smiles": "S=C(Nc1ccc2nsnc2c1)NC1CCCCC1", "Potency": "inactive"},
      {"smiles": "COc1cc(/C=C(\\C#N)c2nnc(N3CCOCC3)n2-c2ccccc2)ccc1O", "Potency": "inconclusive: 18.4 µM [activator, partial curve]"},
      {"smiles": "Cc1ccc(-n2c(C)cc(C=C(C#N)C#N)c2C)cc1", "Potency": "inactive"},
      {"smiles": "Nc1ccc(SCCN2C(=O)c3ccccc3C2=O)cc1", "Potency": "inconclusive: 18.4 µM [activator, single point]"},
      {"smiles": "Cc1cn(CCC(=O)Nc2ccccc2N2CCOCC2)c2ccccc12", "Potency": "inconclusive: 20.6 µM [activator, partial curve, poor fit]"}
    ]}
  ]
}
